The supplement of paper PMC11417369
± gives the standard deviation of the averaged measurements. This is one part of the list.

test system: PfAP2-G AP2 domain (GST-tagged); assay: gcPBM binding intensity (ln(normalized median fluorescence intensity)); higher = stronger DNA binding
Method in brief: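 In this array assay, P. falciparum DNA-binding domains with a GST tag, expressed in E. coli, were applied for 1 h to primer-extended double-stranded 36-bp intergenic genomic probes and negative controls on an Agilent 4 × 180k array. Bound protein was visualised with Alexa488 anti-GST antibody at 488 nm. Binding intensity is the highest Masliner-normalised natural-log median intensity across replicate spots of either probe orientation.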

Sequence	gcPBM binding intensity (ln)
TACAAATACATTACATGTACATATTTAATAATATCA [XGTACX_site2075]	11.2 ± 0.84
TTTTCAATTAATAATACACACATGTATATATTATTA [CACACA_site3311]	9.98 ± 0.2
TATATTATTATGCATAGTACGTACTGTGATAAGAAT [XGTACX_site2956]	11.4 ± 0.8
CATTTTAAAACAGACACACACCAAAAAAAAAAAAAA [CACACA_site6259]	10.1 ± 0.52
TTTTTCTGTCGTTGTTGTACTTGAGGAGTAACAATT [XGTACX_site7852]	11.3 ± 0.81
TTTGAAAAGTATGAGGTGCAAAAAATGTAATGAAAT	10.4 ± 0.23
TTTTTTTTTTTTTTGGTGCGATCTTTTAAATGATCC	10 ± 0.57
TTTTATAATTTAAAATAATGAAACTTCTTTCTATTT [TGCATGCA_negctrl_site324]	9.5 ± 0.24
GTATATAAGTATATATGTACATATATTTTATATATA [XGTACX_site4745]	11.1 ± 0.49
AATACGAAGGATAAGAGTACTAATTAAATAAATGAA [XGTACX_site523]	11 ± 0.46
ATATAAGAATAAATAGTGCAAAATAAATGATTATTT	9.76 ± 0.22
TTTCTGATATTTTTATATTTTCTTATATATATATAT [GTGCAC_negctrl_site652]	9.99 ± 0.26
TTTAAATTTTAATATGCACACAAAATGTTATATTAA [CACACA_site8015]	9.95 ± 0.19
TATTATATCGAACACTGTACTTTTTTATTCAACCTA [XGTACX_site493]	11.6 ± 0.95
GCCTTTTTATTTAGAACACACACAAAAAAAAAAAAA [CACACA_site8520]	10.2 ± 0.54
AATAATAAATATATATATATATATATATATATATTT [CACACA_negctrl_site786]	9.56 ± 0.19
TAATAAACCAAACTAAACAATATATCAAAAAGCACA [CACACA_negctrl_site269]	10.03 ± 0.035
ATATATATATATATAGTGCAAATATCTTCTTTATAA	10.2 ± 0.72
CTTTCTTATTTGAACGCATGCATTTGTACCTTTTAT [TGCATGCA_site671]	10.8 ± 0.6
TATATACAAAATGCCTGTACATATATATTTATTTAT [XGTACX_site761]	10.9 ± 0.57
CATGCAAAAAATTCCACACACACACCCACATATAAA [CACACA_site1229]	10.5 ± 0.49
AATAATATCATTTAGACACACACTCTTACAATATGT [CACACA_site8832]	10.035 ± 0.007
AATTATTTATCGGAATGTACATAAAAACATATGTAT [XGTACX_site7443]	11.1 ± 0.58

Sequence	gcPBM binding intensity (ln)
ACCTACATAACATACACACGCATATATATAATTTTA [CACACA_site2847]	10.2 ± 0.16
TATTTAATAAAGAAATAAAAATAAAGAAAAAAAAAA [CACACA_negctrl_site74]	9.82 ± 0.13
TAAAATGTAATCTGAACACACATATTTTTTTAATAT [CACACA_site1768]	9.79 ± 0.12
TATAAATTTGTTGTTGCATGCAGTATACCAAAAAAA [TGCATGCA_site445]	10.3 ± 0.38
ATTTGTAATTTATATTCACACATTCAAAAAAATGAG [CACACA_site6057]	9.91 ± 0.13
AAAAATATAATATAATGTACACAAAAAAAAAAAAAT [XGTACX_site4914]	11.6 ± 0.91
AATAGCCCATATGGAATACACACTGAAAATAAAAAA [CACACA_site3373]	10.3 ± 0.26
CCATAAAAAGGATACACACACACACCGACATATATA [CACACA_site4653]	10.3 ± 0.22
TTCATTTAGCAAGAATGTACTTATATATATATATAT [XGTACX_site3401]	11.1 ± 0.92
CAAAAAAATGTGAAGGCATGCAAATATGTAAAATAA [TGCATGCA_site921]	10.06 ± 0.014
ATAAAGCCATACAATACACACATTTTACATGGGGGT [CACACA_site9072]	11.2 ± 0.74
GTATTATATTTCAACTGTACGTAAAACTATTAAAAT [XGTACX_site3679]	11.7 ± 1.1
CAACATAAAAATTAAGCATGCAATAGACTTGTGTTG [TGCATGCA_site417]	9.965 ± 0.035
TAATAAAATAATATCACACATATTTATATATATTAT [CACACA_site5814]	9.59 ± 0.028
GTTTAAAAAAATTATCAACTTTAAAAAGGTAACATT [XGTACX_negctrl_site203]	9.98 ± 0.34
ATATAAAAATTAAAATGTACATATCTTATTATAATA [XGTACX_site983]	11.1 ± 0.61
GTAGTAAATAGGAGGATGCATATGGCACACATTATA [TGCATGCA_negctrl_site59]	10.34 ± 0.092
AACTAATATAATAATACATGCACATAAAAATATATA [TGCATGCA_site606]	9.915 ± 0.007
AAAGGAATATAATGATGTACACAAATATATATACAT [XGTACX_site5347]	11.4 ± 0.61
TGAATAATATACATACGTACATACATATATATAATA [XGTACX_site1302]	11.3 ± 0.98
ATAAAAAGGAAACACACACACACACCCATATATATA [CACACA_site904]	10.1 ± 0.11
TTTTTTTTTTTTTTTTTTTTCATTCAATTATATTTA [CACACA_negctrl_site712]	9.4 ± 0.54
TTATCACATAAACGATGTACGTACTAGGTTTTTTTT [XGTACX_site2147]	11.5 ± 0.79

Sequence	gcPBM binding intensity (ln)
CACGCATACGGACACACACACACACCGATATATATA [CACACA_site4521]	11.3 ± 0.79
TATTTTTTTATTTGTGCATGTCATATTTAAACATAA [TGCATGCA_site1006]	10.05 ± 0.085
ATATTTTGTTTTATAGTGCACATGGGCATATATTAA [GTGCAC_site9435]	10.5 ± 0.35
ATATATATTATCATTGTGCACTTATTTATATACCTT	10.5 ± 0.28
GGCAACAATGTAGATTGTACATATGAATTTTACAAT [XGTACX_site5655]	10.8 ± 0.57
AAATTTCAATAATCTACACACATAAAAAAACAAAAG [CACACA_site1702]	10.11 ± 0.071
TTTACTTTTTTTTCTTGTACTCATACATACTATCAT [XGTACX_site4919]	11.4 ± 0.81
TTTAATAAATAAATAAATAAAATATATTAAAAACCA [CACACA_negctrl_site80]	9.695 ± 0.064
ATAATATGAAAACACACACACACACTAATAAAAAAA [CACACA_site8617]	10.1 ± 0.12
ATATTTTATTATTGTTGTACTTTTTTTTTTTGATTG [XGTACX_site4091]	11.5 ± 0.95
TAAGTATATAAAATTACACACTATTTTTTTTCAAGT [CACACA_site1792]	9.945 ± 0.064
TAGAAAAAAGATAGCACACACGGCCCAATATATATA [CACACA_site5354]	10.1 ± 0.16
TAATTCTTTATTTTTCGTACGTAAAACAAAAAATAT [XGTACX_site862]	11.1 ± 0.79
AATGTAAAGAACAAAACATGCAACTAGTTTACTTTT [TGCATGCA_site841]	9.94 ± 0.042
TCGAATATCTTATAGGTGCATCATAAATACATATGT	10.2 ± 0.28
GAATAAAAAAAAAAAAAAATTTATTTTATAATAAAA [CACACA_negctrl_site1514]	9.34 ± 0.042
ATATATATATATATATGTACATAAATATAAATTTAA [XGTACX_site8715]	11.3 ± 0.91
TTAATTTCGAATTATTGTACATTAATATATCTACAG [XGTACX_site3314]	10.8 ± 0.45
AAAACAAATAGACACGCACACAAAAAAAAAAAAAAA [CACACA_site801]	10.3 ± 0.43
AAAAAATATATTAAGGCACACACATACATATATATA [CACACA_site9239]	10 ± 0.18
CCTTTTGGATGAAAGTGTACAGGTGAGAAAAATTCC [XGTACX_site3358]	11.2 ± 0.79
ATGCAATAATAATGGAGTACATATTAATATTGATCA [XGTACX_site2312]	11.5 ± 1
CATTAGCATTTTATTACACACAATAAATTAGAAGTA [CACACA_site7837]	10 ± 0.13

Sequence	gcPBM binding intensity (ln)
AAGAAAATGTAGAATTAGAAATAAATGAAGAAATGA [TGCATGCA_negctrl_site548]	9.795 ± 0.021
AGTAGATTTTTATTAGTGCATTTTATACTACAAAAA	10.1 ± 0.11
TATATGTTTAATTTCACACACAAATATACATTTTAA [CACACA_site4171]	9.91 ± 0.085
TATCCCTTAGAATACACACCCATATGAGGGTGAACT [CACACA_site5610]	10 ± 0.11
CTTAATGATAAATACATACACACAAAAAATAATATA [CACACA_site2577]	10 ± 0.028
ATATTTATTTATATCATACACACTAATATGTATATT [CACACA_site7576]	9.97
TTTTAAAACAATGAGATTCCTTTCTTTTTTTCTTTT [CACACA_negctrl_site1320]	9.5 ± 0.085
ATATTCTCTTAAATATGTACGTATGTATATATATAT [XGTACX_site5885]	11.3 ± 0.94
CGCAAAACAATGATACGTACATATATATATATATAT [XGTACX_site5883]	11.4 ± 0.92
TTTTTAATTTTATATACACACATAAAAGATATGAAG [CACACA_site7470]	10 ± 0.4
ATTCTTAAATGTGGTTGTACATATTATCACCTTTAA [XGTACX_site8188]	11.2 ± 0.71
AATGTACGCATATACACACACATAAATAGATACGTA [CACACA_site3406]	11.5 ± 1
AACGAAAACACTACGTGTACCAAACGTCCTACCAAC [XGTACX_site257]	11.2 ± 0.53
AATAGTTAAATACATACATGCATTCATATAATATAT [TGCATGCA_site433]	9.89 ± 0.13
TAATTAAGAATATATAGTACATAGTTGAAAAACTTT [XGTACX_site6359]	10.8 ± 0.46
AAGATAAAAATATGCACACATATATATATATATATA [CACACA_site404]	9.97 ± 0.3
TTCAAAAAATATATCTGTACAAATTATGTAGATGAA [XGTACX_site5522]	10.8 ± 0.48
TAGATCATAACAATTGCACACATTTGCATTTATATT [CACACA_site1562]	9.9 ± 0.071
TTTTTACTTATTTATTATGTACAATTTCTTCTTTCT [CACACA_negctrl_site264]	10.9 ± 0.66
TTTTTTTTTTTTTTTTTTTTACGATATATTTTAAAA [XGTACX_negctrl_site401]	9.63 ± 0.39
TCTTATAAATTAAATATAAAAAAAAAAAAAAAAAAA [XGTACX_negctrl_site77]	9.45 ± 0.38
